Assay results published in paper PMC12820563, “FoxP3 forms a head-to-head dimer in vivo and stabilizes its multimerization on adjacent microsatellites”.
This is one part of the list.

The sequences below were run against T1, MBP-FoxP1dN (Mus musculus, UniProt P58462 326-579) (assay: PD-seq (MBP pull-down with sequencing); 20 mM Tris-HCl pH 7.5, 100 mM NaCl, 1.5 mM MgCl2, 0.4 uM protein, 0.1 uM dsDNA library, 30 min, room temperature, amylose pull-down; high values mean tight binding). Conditions: protein: recombinant; tags: His6-MBP; chain copies: 2; dsDNA, one strand shown.
T1 sequence: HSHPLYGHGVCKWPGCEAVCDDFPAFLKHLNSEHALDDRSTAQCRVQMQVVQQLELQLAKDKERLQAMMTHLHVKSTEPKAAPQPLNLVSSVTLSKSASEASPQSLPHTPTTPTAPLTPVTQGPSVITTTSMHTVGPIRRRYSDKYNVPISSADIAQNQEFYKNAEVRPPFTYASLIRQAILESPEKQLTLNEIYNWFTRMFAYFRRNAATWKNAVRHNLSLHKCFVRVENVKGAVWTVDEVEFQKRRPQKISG
Summary of the method: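 Mouse FoxP3 or FoxP1 fragment lacking the N-terminus, His6-MBP-tagged and expressed in E. coli, was incubated at 0.4 µM with 0.1 µM Klenow-filled degenerate double-stranded DNA library for 30 min at room temperature in Tris pH 7.5 buffer with NaCl and MgCl2. Complexes captured on amylose resin were washed three times and their DNA sequenced on Illumina. Binding is reads-per-million enrichment of pull-down over input, replicates pooled.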

Sequence | binding signal
GATGATTGTTCTCCCAGCTGATGAATTCCGCAACTCGAGTAAACAAATTTTCCTAATCTTTCTGTTCAAGCGCCATCTAC | 0.989 RPM ratio (pull-down/input)
GATGATTGTTCTCCCAGCTGATGAATTCGTCTAGTCGAGTAAACAAATTTTCCTAATCTTTCTGTTCAAGCGCCATCTAC | 0.845 RPM ratio (pull-down/input)
GATGATTGTTCTCCCAGCTGATGAATTCCAGATGTCGAGTAAACAAATTTTCCTAATCTTTCTGTTCAAGCGCCATCTAC | 0.807 RPM ratio (pull-down/input)
GATGATTGTTCTCCCAGCTGATGAATTGGACGATTCGAGTAAACAAATTTTCCTAATCTTTCTGTTCAAGCGCCATCTAC | 0.842 RPM ratio (pull-down/input)
GATGATTGTTCTCCCAGCTGATGAATTTTGATCATCGAGTAAACAAATTTTCCTAATCTTTCTGTTCAAGCGCCATCTAC | 1.08 RPM ratio (pull-down/input)
GATGATTGTTCTCCCAGCTGATGAATTCTCTATGTCGAGTAAACAAATTTTCCTAATCTTTCTGTTCAAGCGCCATCTAC | 0.833 RPM ratio (pull-down/input)
GATGATTGTTCTCCCAGCTGATGAATTATAAGTTTCGAGTAAACAAATTTTCCTAATCTTTCTGTTCAAGCGCCATCTAC | 1.02 RPM ratio (pull-down/input)
GATGATTGTTCTCCCAGCTGATGAATTACCAACGTCGAGTAAACAAATTTTCCTAATCTTTCTGTTCAAGCGCCATCTAC | 1.07 RPM ratio (pull-down/input)
GATGATTGTTCTCCCAGCTGATGAATTGTGGATTTCGAGTAAACAAATTTTCCTAATCTTTCTGTTCAAGCGCCATCTAC | 1.08 RPM ratio (pull-down/input)
GATGATTGTTCTCCCAGCTGATGAATTTGAGGGTTCGAGTAAACAAATTTTCCTAATCTTTCTGTTCAAGCGCCATCTAC | 0.789 RPM ratio (pull-down/input)
GATGATTGTTCTCCCAGCTGATGAATTCAACCTGTCGAGTAAACAAATTTTCCTAATCTTTCTGTTCAAGCGCCATCTAC | 0.827 RPM ratio (pull-down/input)
GATGATTGTTCTCCCAGCTGATGAATTTTATTGATCGAGTAAACAAATTTTCCTAATCTTTCTGTTCAAGCGCCATCTAC | 2.45 RPM ratio (pull-down/input)
GATGATTGTTCTCCCAGCTGATGAATTTGCTGGTTCGAGTAAACAAATTTTCCTAATCTTTCTGTTCAAGCGCCATCTAC | 0.997 RPM ratio (pull-down/input)
GATGATTGTTCTCCCAGCTGATGAATTCGTTGACTCGAGTAAACAAATTTTCCTAATCTTTCTGTTCAAGCGCCATCTAC | 0.913 RPM ratio (pull-down/input)
GATGATTGTTCTCCCAGCTGATGAATTCTCCTTGTCGAGTAAACAAATTTTCCTAATCTTTCTGTTCAAGCGCCATCTAC | 0.774 RPM ratio (pull-down/input)
GATGATTGTTCTCCCAGCTGATGAATTTGGACGTTCGAGTAAACAAATTTTCCTAATCTTTCTGTTCAAGCGCCATCTAC | 0.923 RPM ratio (pull-down/input)
GATGATTGTTCTCCCAGCTGATGAATTAGCGATCTCGAGTAAACAAATTTTCCTAATCTTTCTGTTCAAGCGCCATCTAC | 0.82 RPM ratio (pull-down/input)
GATGATTGTTCTCCCAGCTGATGAATTACTGGACTCGAGTAAACAAATTTTCCTAATCTTTCTGTTCAAGCGCCATCTAC | 0.911 RPM ratio (pull-down/input)
GATGATTGTTCTCCCAGCTGATGAATTCGGAGAATCGAGTAAACAAATTTTCCTAATCTTTCTGTTCAAGCGCCATCTAC | 0.901 RPM ratio (pull-down/input)
GATGATTGTTCTCCCAGCTGATGAATTGGGAGAGTCGAGTAAACAAATTTTCCTAATCTTTCTGTTCAAGCGCCATCTAC | 0.805 RPM ratio (pull-down/input)

Sequence | binding signal
GATGATTGTTCTCCCAGCTGATGAATTTAAGTTCTCGAGTAAACAAATTTTCCTAATCTTTCTGTTCAAGCGCCATCTAC | 0.899 RPM ratio (pull-down/input)
GATGATTGTTCTCCCAGCTGATGAATTGTATCACTCGAGTAAACAAATTTTCCTAATCTTTCTGTTCAAGCGCCATCTAC | 1.14 RPM ratio (pull-down/input)
GATGATTGTTCTCCCAGCTGATGAATTTTATAAATCGAGTAAACAAATTTTCCTAATCTTTCTGTTCAAGCGCCATCTAC | 1.13 RPM ratio (pull-down/input)
GATGATTGTTCTCCCAGCTGATGAATTTTGCGTCTCGAGTAAACAAATTTTCCTAATCTTTCTGTTCAAGCGCCATCTAC | 0.991 RPM ratio (pull-down/input)
GATGATTGTTCTCCCAGCTGATGAATTGTCACACTCGAGTAAACAAATTTTCCTAATCTTTCTGTTCAAGCGCCATCTAC | 1.07 RPM ratio (pull-down/input)
GATGATTGTTCTCCCAGCTGATGAATTTAGGAAATCGAGTAAACAAATTTTCCTAATCTTTCTGTTCAAGCGCCATCTAC | 1.11 RPM ratio (pull-down/input)
GATGATTGTTCTCCCAGCTGATGAATTTGTTCCGTCGAGTAAACAAATTTTCCTAATCTTTCTGTTCAAGCGCCATCTAC | 1.13 RPM ratio (pull-down/input)
GATGATTGTTCTCCCAGCTGATGAATTAAAGGATTCGAGTAAACAAATTTTCCTAATCTTTCTGTTCAAGCGCCATCTAC | 0.866 RPM ratio (pull-down/input)
GATGATTGTTCTCCCAGCTGATGAATTGTATCGATCGAGTAAACAAATTTTCCTAATCTTTCTGTTCAAGCGCCATCTAC | 1.02 RPM ratio (pull-down/input)
GATGATTGTTCTCCCAGCTGATGAATTAGGAGGATCGAGTAAACAAATTTTCCTAATCTTTCTGTTCAAGCGCCATCTAC | 0.888 RPM ratio (pull-down/input)
GATGATTGTTCTCCCAGCTGATGAATTACTTTGTTCGAGTAAACAAATTTTCCTAATCTTTCTGTTCAAGCGCCATCTAC | 1.1 RPM ratio (pull-down/input)
GATGATTGTTCTCCCAGCTGATGAATTATTGAATTCGAGTAAACAAATTTTCCTAATCTTTCTGTTCAAGCGCCATCTAC | 1.14 RPM ratio (pull-down/input)
GATGATTGTTCTCCCAGCTGATGAATTTGGTCCCTCGAGTAAACAAATTTTCCTAATCTTTCTGTTCAAGCGCCATCTAC | 0.875 RPM ratio (pull-down/input)
GATGATTGTTCTCCCAGCTGATGAATTCCTGCCGTCGAGTAAACAAATTTTCCTAATCTTTCTGTTCAAGCGCCATCTAC | 0.766 RPM ratio (pull-down/input)
GATGATTGTTCTCCCAGCTGATGAATTGAGTAGTTCGAGTAAACAAATTTTCCTAATCTTTCTGTTCAAGCGCCATCTAC | 0.925 RPM ratio (pull-down/input)
GATGATTGTTCTCCCAGCTGATGAATTCGTGCTATCGAGTAAACAAATTTTCCTAATCTTTCTGTTCAAGCGCCATCTAC | 1.05 RPM ratio (pull-down/input)
GATGATTGTTCTCCCAGCTGATGAATTTATGTTGTCGAGTAAACAAATTTTCCTAATCTTTCTGTTCAAGCGCCATCTAC | 2.86 RPM ratio (pull-down/input)
GATGATTGTTCTCCCAGCTGATGAATTTTTGTGGTCGAGTAAACAAATTTTCCTAATCTTTCTGTTCAAGCGCCATCTAC | 1.23 RPM ratio (pull-down/input)
GATGATTGTTCTCCCAGCTGATGAATTTAAATTATCGAGTAAACAAATTTTCCTAATCTTTCTGTTCAAGCGCCATCTAC | 1.02 RPM ratio (pull-down/input)
GATGATTGTTCTCCCAGCTGATGAATTACGCTTCTCGAGTAAACAAATTTTCCTAATCTTTCTGTTCAAGCGCCATCTAC | 0.995 RPM ratio (pull-down/input)
